Data reported in PubChem BioAssay AID760 (NMMLSC, 2007).
In all, about 190,000 compounds went through this assay and about 360 (0.19%) were called active. This list was built around the results that the source calls inconclusive (neither active nor inactive); the mix of calls is not that of the screen.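 Rule for the calls: active = GTP binding activity at least 20 points away from 100%, either lowered or raised; inconclusive = signal likely due to the compound's own green fluorescence; inactive = the rest.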

Target: Ras-related protein Rab-2A (Canis lupus familiaris) (UniProt P61105)
Assay: Rab2 wt fluorescent GTP binding changes, either direction – biochemical, dog, bead-based flow cytometry, multiplex, primary screen (AID 760);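 note: 0% = beads with excess unlabeled GTP and 100% = no-compound control corrected for plate trend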
Details: GST-Rab2 wt beads, Bodipy-GTP binding, at 10 µM

Row | Structure (SMILES) | GTP binding activity
1 | CCn1c(SCC(=O)Nc2ccc3c(c2)c2ccccc2n3CC)nnc1-c1cnccn1 | inconclusive: 91%
2 | Cc1ccc(Nc2cc(-n3nc(C)cc3C)ncn2)c(C)c1 | inconclusive: 103%
3 | Cc1ccc(/C=C/C(=O)c2ccccc(=O)c2O)cc1C | inactive: 81%
4 | COCCN1Cc2cccc(C(=O)Nc3cc(C)cc(C)c3)c2C1=O | inconclusive: 89%
5 | CCOCCCNC(=O)c1ccc(Cn2c(=S)[nH]c3c([nH]c4ccc(OC)cc43)c2=O)cc1 | inconclusive: 96%
6 | COc1ccc(N2CCN(C(=O)CNS(=O)(=O)c3ccc(C)c(C)c3)CC2)cc1 | inactive: 96%
7 | O=C(CSc1ncn[nH]1)CSc1ncn[nH]1 | inactive: 102%
8 | Cc1ccc(S(=O)(=O)NCCCCCC(=O)NC(C)(C)CO)cc1 | inconclusive: 101%
9 | O=C(NCC(c1cccnc1)N1CCN(c2ccc(F)cc2)CC1)c1ccc(F)cc1 (centres undefined) | inactive: 91%
10 | Cc1cccc(-n2cccc2)c1C#N | inconclusive: 103%
11 | O=c1c2cnn(-c3ccccc3)c2ncn1Cc1cccnc1 | inconclusive: 102%
12 | Cc1ccc(C(=O)Nc2cccc([N+](=O)[O-])c2)cc1S(=O)(=O)Nc1cccc(C(=O)O)c1 | inconclusive: 87%
13 | COc1ccc(/C=C(/NC(=O)c2cccc([N+](=O)[O-])c2)C(=O)O)cc1 | inactive: 99%
14 | CCn1c(SCC(=O)Nc2nc3ccc(OC)cc3s2)nc2c1c(=O)n(C)c(=O)n2C | inconclusive: 93%
15 | Cc1nnc2ccc(-c3cccc(NS(C)(=O)=O)c3)nn12 | inconclusive: 94%
16 | O=C(c1cccs1)N1CCCC(c2ccccc2)C1 (centres undefined) | inconclusive: 95%
17 | FC(F)(F)c1cccc(-c2nnc3ccc(C(F)(F)F)cn23)c1 | inconclusive: 104%
18 | O=C(NN1C(=O)c2ccccc2NC1c1ccccc1OCc1ccccc1)c1ccncc1 (centres undefined) | inconclusive: 106%
19 | Cc1cccc(C(=O)OCc2cncs2)c1 | inactive: 92%
20 | COC(=O)CSc1nnc(-c2ccco2)o1 | inconclusive: 105%

Row | Structure (SMILES) | GTP binding activity
21 | O=C(Nc1ccccc1Cl)N1CCN(c2ccc3nnc(-c4ccccc4)n3n2)CC1 | inconclusive: 85%
22 | CSc1nc(N)c(C#N)c(-c2ccccc2Cl)c1C#N | inconclusive: 101%
23 | Cc1ccc(Nc2n[nH]c(C)c2[N+](=O)[O-])c(C)c1 | active: 192% [activator]
24 | CCC(C)N(C(=O)c1csnn1)C(C(=O)NC(C)(C)C)c1ccccc1 (centres undefined) | inactive: 100%
25 | Cc1ccc(C)c(C(=O)OCC(=O)Nc2ccc(N3CCOCC3)cc2)c1 | inconclusive: 95%
26 | COC(=O)c1ccccc1NC(=S)NC(NC(=O)c1ccccc1[N+](=O)[O-])C(Cl)(Cl)Cl (centres undefined) | inconclusive: 105%
27 | Cc1ccc(NC(=O)NC2(C(=O)NCc3ccccc3)CCCCC2)cc1 | inconclusive: 97%
28 | CCOc1ccc(NC(=S)N=Nc2c(O)[nH]c3ccccc23)cc1 | inconclusive: 73%
29 | Cc1ccc(-c2nc3ccccc3[nH]2)cc1NC(=O)/C=C/c1ccco1 | inactive: 102%
30 | Cc1ccc(C)c(NC(NC(=O)c2ccccn2)C(Cl)(Cl)Cl)c1 (centres undefined) | inactive: 97%
31 | OCCNC1=NCCN1 | inconclusive: 104%
32 | Cc1ccnc(NC(=O)Cn2cc([N+](=O)[O-])cn2)c1 | inactive: 99%
33 | NC(N)=Nc1nc2ccc(Cl)cc2c(=O)[nH]1 | inconclusive: 87%
34 | O=C(COC(=O)c1ccccc1C(=O)N1CCN(c2ccccc2)CC1)NCc1ccccc1 | inconclusive: 96%
35 | Cc1cc(=O)oc2cc(OCC(=O)OCC(=O)Nc3ccccc3F)ccc12 | inconclusive: 96%
36 | Cc1cc(C)n(Cc2n[nH]c(=S)n2Cc2ccccc2)n1 | inconclusive: 313%
37 | Cn1c(SCCOc2cccc(Cl)c2)nnc1-c1ccncc1 | inconclusive: 107%
38 | COC(/C=C/Nc1ccc(OC)cc1)=C(C#N)C#N | inconclusive: 106%
39 | CCCN(CCC)S(=O)(=O)c1ccc(C(=O)Nc2cc3oc4ccccc4c3cc2OC)cc1 | inactive: 95%
40 | Cn1c(=N)c(S(=O)(=O)c2ccccc2)cc2c(=O)n3ccccc3nc21 | inconclusive: 81%

Row | Structure (SMILES) | GTP binding activity
41 | Cc1ccc(NC(=S)N(Cc2ccccc2)Cc2cccs2)c(C)c1 | inactive: 99%
42 | O=C(COC(=O)Cc1ccc(S(=O)(=O)N2CCOCC2)s1)Nc1ccc2c(c1)OCO2 | inconclusive: 103%
43 | CCOc1ccc(N(CC(=O)NCCc2ccc(Cl)cc2)S(=O)(=O)c2c(C)[nH]c(=O)[nH]c2=O)cc1 | inactive: 86%
44 | Cc1cccc(CSc2ncccc2C(=O)O)c1 | active: 132% [activator]
45 | COc1ccc(/C=N/n2c(N)c(S(=O)(=O)c3cccs3)c3nc4ccccc4nc32)cc1OC | active: 49%
46 | O=C(ONC1=NCCCCC1)c1ccc([N+](=O)[O-])cc1 | inactive: 99%
47 | O=C(CSc1cccc[n+]1[O-])Nc1cc([N+](=O)[O-])ccc1Cl | inconclusive: 92%
48 | c1ccc(-c2cc3c(N4CCCCC4)ncnc3s2)cc1 | inconclusive: 89%
49 | CCOc1cc(C(=O)NC(C)CC)cc(OCC)c1OCC (centres undefined) | inconclusive: 105%
50 | Clc1cccc2c1CCN(Cc1nc(-c3cnccn3)no1)C2 | inactive: 101%
51 | CCN1CCN(c2nc3c(c(=O)n(C)c(=O)n3C)n2Cc2cccc3ccccc23)CC1 | inactive: 111%
52 | Cc1cccc2sc(N(CCN(C)C)C(=O)/C=C/c3cccs3)nc12 | inconclusive: 102%
53 | O=[N+]([O-])c1ccc(Cl)c(/C=N/n2c(-c3cccnc3)n[nH]c2=S)c1 | inconclusive: 83%
54 | O=C1CCCc2nc(N3CCc4ccccc43)ncc21 | inconclusive: 87%
55 | Cc1c(NC(=O)Nc2ccccc2Cl)sc(=S)n1C | inconclusive: 103%
56 | Cc1ccc(-c2nnc3sc(C4COc5ccccc5O4)nn23)cc1 (centres undefined) | inconclusive: 93%
57 | O=C(NCC1CCCO1)c1ccc2c(=O)n(CC3CCCO3)c(SCC(=O)N3CCCC3)nc2c1 (centres undefined) | inactive: 99%
58 | N#CCc1nc2n(n1)Cc1ccccc1-2 | inconclusive: 99%
59 | CCOC(=O)C1(Cc2cccc(OC)c2)CCN(CC2CC=CCC2)CC1 (centres undefined) | inactive: 99%
